The text below walks through data of the supplement of paper PMC11417369.

± gives the standard deviation of the averaged measurements. The list shows a part of the results.

The test system of the test is PfAP2-I AP2 domain 3 (GST-tagged). Put plainly: gcPBM binding intensity (ln(normalized median fluorescence intensity)); higher = stronger DNA binding. The method in brief: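 GST-fused DNA-binding domains of P. falciparum, expressed in E. coli, were applied at about 25 μg on average for 1 h to an Agilent 4 × 180k array of primer-extended double-stranded 36-bp intergenic genomic probes and negative controls. Binding intensity is the highest Masliner-normalised natural-log median intensity across replicate spots of either probe orientation, measured with Alexa488 anti-GST antibody and a 488 nm scan.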
In the case of “ATAATAATTTTATGCACACAGAAAAATACAAGGTTA [CACACA_site3510]”, the “gcPBM binding intensity (ln)” value is 9.53 ± 0.26.

For the sequence “TTTTCTTGGTATATGATTTATCCTAAATAAGTAAAT [CACACA_negctrl_site294]”, the “gcPBM binding intensity (ln)” value worked out at 7.57 ± 0.55.

On to “TTGCCTGACTTGTTCACACATATTTATGATATACAT [CACACA_site5783]”, for which the “gcPBM binding intensity (ln)” value was 7.8 ± 0.82. The figure for “TCAAGTTTATATTAACTATTTATGAAAAAAAAAAGA [CACACA_negctrl_site902]” is 7.67 ± 0.29. The figure for “ATATATTACAAATGGAGTACTAAAAATATTCTATAT [XGTACX_site6669]” is 8.02 ± 0.38. The figure for “CTAAAAATTTTAATTGCACACCACGTTGGACTATTT [CACACA_site1489]” is 9.67 ± 0.057; for “TTACACTAAATATGTTCACACATTTTTTCCATCATA [CACACA_site4647]” it is 7.96 ± 0.66; for “TATATATATGGGTTTACACACAATAATGAATTAAAA [CACACA_site915]” it is 8.05 ± 0.8. “CCCATGCATTTTTGCACACACATATATTTATAAATA [CACACA_site6785]”: the “gcPBM binding intensity (ln)” value came to 9.75 ± 0.17.

Regarding “CCCACAGACGGACACACACACACATATATATATATA [CACACA_site4352]”, the “gcPBM binding intensity (ln)” value came to 9.3 ± 0.4. The figure for “ATAAAAATGGATGAATATAAAAAAAAAAAAATATAT [CACACA_negctrl_site182]” is 7.74 ± 0.59; for “GAATATATAAGAACAAATATGGCTTAGAAAAAAAAA [TGCATGCA_negctrl_site451]” it is 7.53 ± 0.88. The figure for “TACAAAAGTTAAACATGTACTTAATTATATGTTTTT [XGTACX_site2852]” is 7.37 ± 0.44; for “CATATATATAAATACACACACACACCCCTTATAATT [CACACA_site4064]” it is 8.31 ± 0.26. The figure for “TAGGAGCCGAAACACACACACAAAAAAAAAAAAAAA [CACACA_site1731]” is 8.06 ± 0.71; for “TTTTACAATAACAATACACACTATAATATATATATA [CACACA_site4893]” it is 8.795 ± 0.078; for “AAAAGAATTTGAAGTCGTACAATATCTATTATATGA [XGTACX_site8275]” it is 7.61 ± 0.37.

In the case of “AAAAAAAAATAAAAATGTACATATATAATATTATAT [XGTACX_site71]”, the “gcPBM binding intensity (ln)” value is 7.79 ± 0.49.

For the sequence “ATATAATATACTTATTGTACTTATTTAAAATACTAA [XGTACX_site4266]”, the “gcPBM binding intensity (ln)” value was 7.88 ± 0.22. The figure for “AAAAAATGGCTAGTTTGTACACAAAAGTTATTGCAT [XGTACX_site5381]” is 8.28 ± 0.3; for “AAGATAAAATTATGCACACATACGAATAATTTTAAA [CACACA_site1705]” it is 9.79 ± 0.39; for “TTTCTCAATTCTTAGAGTACATAAATAAAAAAAAAA [XGTACX_site7639]” it is 7.91 ± 0.42. Consider “TTAACTTTTATATAGTGTACAAATAAATGCATACAG [XGTACX_site5958]”, for which the “gcPBM binding intensity (ln)” value was determined as 8.29 ± 0.43. The figure for “TTATTATTTAACATGTGGACACAAAAATTTAAGGGT [XGTACX_site4638]” is 8.24 ± 0.51; for “AAAAAACAAAAACACACACACACATATATATATATA [CACACA_site3654]” it is 9.46 ± 0.13; for “ATCACTAACATGTGTTGTACATAAAATTTGTTTGTT [XGTACX_site2207]” it is 7.63 ± 0.47.

Regarding “TGAACACAGACAAATACACACAAAAAAAATAAATAA [CACACA_site4298]”, the “gcPBM binding intensity (ln)” value came out at 7.79 ± 0.46. The figure for “TATTATGTATAAAGAAGTACTTTTTTTTTTTTTTTC [XGTACX_site201]” is 7.43 ± 0.35; for “TGCAAATTTAACAAAAAAAAAAAAAAAAAAAAAAAA [GTGCAC_negctrl_site64]” it is 8.14 ± 0.9. With “TCTACTACTTAATGGAGTACTAGCTTCATAATATTA [XGTACX_site7030]”, the “gcPBM binding intensity (ln)” value is 7.46 ± 0.47. For “GATTATTTAAAATATACATGCGCGCACATATGCATA [TGCATGCA_site630]”, the “gcPBM binding intensity (ln)” value came to 8.21 ± 0.4. Consider “TGCATTTTCCTATTTGCATGCAATTAAAATATAGAA [TGCATGCA_site862]”, for which the “gcPBM binding intensity (ln)” value was 8.12 ± 0.47.

Take “AACATATATACAGTAACACACACAAAAAAATATGAA [CACACA_site9323]”: the “gcPBM binding intensity (ln)” value is 8.03 ± 0.54.

As to ATGTTTTAATGAGGTTTGCACTATATTTTAATGAAC, the “gcPBM binding intensity (ln)” value was 9.22 ± 0.32. The figure for “AAGAAAATAAAATAAAAAAAAAAATAAAAAAAATAA [TGCATGCA_negctrl_site516]” is 7.3 ± 0.52; for “TTTTAAAGCATATCATATAAAGAACATGACATAGGA [CACACA_negctrl_site630]” it is 7.69 ± 0.52; for “AACATTTTTAAATATATAAAAATATATATATATATA [XGTACX_negctrl_site551]” it is 9.37 ± 0.26. The figure for “TTATATTTATGATACACACACGTATATTCACATACA [CACACA_site6354]” is 7.88 ± 0.57; for “GTATGTTTAATTTTAGTGCAATTATAAATATTTTAA [GTGCAC_site9531]” it is 10.2 ± 0.3; for “TTGCCATTAATTTATACACACACATTTTAATTTTTT [CACACA_site8150]” it is 8.02 ± 0.5. The figure for “TTGTCATTTATAAAATGTACGTGTGTATATATTTAA [XGTACX_site5000]” is 7.85 ± 0.42; for “TCAATAGTTACTAGTACATGCAAAAATAAACCTATA [TGCATGCA_site85]” it is 7.88 ± 0.64; for “CAAATATATATGTTCACACATATAATTATTGTGAAA [CACACA_site4190]” it is 7.43 ± 0.42. In the case of “CTATTAAAAAAATTATGTACACAACGTCTCTATATA [XGTACX_site4813]”, the “gcPBM binding intensity (ln)” value was 7.76 ± 0.4.
